Experimental data as given in PubChem BioAssay AID1345082 (National Center for Advancing Translational Sciences (NCATS), 2018).
Several values for one entry are separate records, joined by “and”; a condition that tells them apart may be missing. Equal entries are not always repeated. The whole screen tested about 94,000 compounds, of which about 4,000 (4.3%) were called active. Inconclusive means that the source gave no clear call. Such entries were picked first, then a sample of the others. Calls follow the shape of the dose curve; as a rule, active = well fitted inhibition curve with a large enough effect; inconclusive = small, poorly fitted or top-dose-only effect; inactive = no such curve, though single readings can be large or run the other way. A potency beside an inconclusive call is a rough fit, not a confirmed value.
% is scaled to controls: 0 for no effect and ±100 for the full control effect; potency is read from the fitted curve at half-maximal effect; tags tell the direction and shape of the fitted curve.

Experiment: Cytotoxic Profiling in NIH 3T3 Cell Line of Diverse Libraries Using Quantitative High-Throughput Screening; also: nearly all actives have a fitted effect of over 55% in size
Conditions: NIH 3T3 viability, CellTiter-Glo ATP luminescence, 48-72 h; activity change, negative = cytotoxicity: at 96.7 µM (top of the series) unless noted; series mostly up to 96.7 µM
In short: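 ATP-dependent luminescence (CellTiter-Glo) served as the viability signal for NIH 3T3 cells treated with compound for 48 or 72 hr at 37 °C.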
In the case of `Cc1cc(C)cc(N2CCC(NC(=O)c3ccc4[nH]ccc4c3)C2=O)c1` (centres undefined), the Potency is reported as inconclusive: 56.2 µM [inhibitor, partial curve, poor fit].
In the case of `COc1ccc(Cn2c(=O)[nH]c3cccnc32)cc1`, the “activity change, negative = cytotoxicity” value is reported as inactive: -13.3% [at 138 µM].
In the case of `COCc1ccc2c(c1)c(OC(C)(C)C(=O)NCc1ccncc1)nn2Cc1cccnc1`, the Potency is reported as inconclusive: 70.8 µM [inhibitor, partial curve, poor fit].
With `CN(C)C(=O)N1CCc2nc(C3CC3)nc(-c3ccc(Cl)cc3)c2C1` the Potency was inconclusive: 112 µM [inhibitor, partial curve, poor fit].
With `CCn1ccnc1CN(C)C(=O)c1cn(Cc2ccccc2F)nn1` the “activity change, negative = cytotoxicity” value was inactive: -10.3%.
For `O=C1COCCN1c1cc(-c2ccccc2Oc2ccccc2)cn2cncc12`, the Potency was inconclusive: 89.1 µM [inhibitor, partial curve, poor fit].
For `Cc1cc(Cl)ccc1S(=O)(=O)NCCn1c(C)cnc1C1CCC1`, the Potency was inconclusive: 44.7 µM [inhibitor, partial curve, poor fit].
In the case of `Cn1ccc2c(C(=O)NCCc3cnc[nH]3)nc(-c3ccc([S+](C)(=O)[O-])cc3)cc21`, the Potency is reported as inconclusive: 100 µM [inhibitor, partial curve, poor fit].
For `CC(=O)NC1(C)CCCN(Cc2cccc(-c3c(C)noc3C)c2)C1` (centres undefined), the Potency was inconclusive: 63.1 µM [inhibitor, partial curve, poor fit].
With `Cc1ccc(-c2cccc(CN3CCCC(NC(=O)Nc4ccccc4F)C3)c2)cc1Cl` (centres undefined) the Potency was active: 28.2 µM.
In the case of `O=C(C1CCN(Cc2ccccc2-c2ccccc2F)CC1)N1CCC(c2ccccc2)CC1`, the Potency is reported as active: 31.6 µM.
For `COc1ccc(NC(=O)Cn2c(=O)c(-c3noc(C)n3)c3n(c2=O)CCCC3)c(OC)c1`, the “activity change, negative = cytotoxicity” value was inactive: -3.71%.
With `CN(Cc1cccnc1)Cc1nc(C2(O)CCN(C(=O)c3cccc(F)c3)CC2)cs1` the “activity change, negative = cytotoxicity” value was inactive: 0.88%.
For `O=C(NCc1ccc(C(F)(F)F)cc1)[C@@H]1CCCN1c1nccc(Nc2ccccc2Cl)n1`, the Potency was inconclusive: 44.7 µM [inhibitor, partial curve, poor fit].
For `COc1ccc(-c2cc(C(=O)NCc3cccs3)c3cnn(C)c3n2)cc1`, the Potency was inconclusive: 15.8 µM [inhibitor, full curve, poor fit].
For `CC(C)CNC(=O)NC1CCN(C(=O)N2CC3CC(C2)[C@H]2CCCC(=O)N2C3)CC1` (some centres undefined), the “outcome” value was “inactive”.
With `COC1C(=O)N(C2CCN(Cc3scnc3C)CC2)C12CCOCC2` (centres undefined) the “outcome” value was “inactive”.
For `CC(=O)NC1(C)CN(c2cccc(C(F)(F)F)c2)C1`, the Potency was inconclusive: 79.4 µM [inhibitor, partial curve].
With `O=c1c2nc(-c3ccc(O)c(F)c3)ccc2ncn1-c1ccc(F)cc1F` the Potency was inconclusive: 39.8 µM [inhibitor, partial curve, poor fit].
For `CC(C)(C)c1cc(C(=O)NCCc2ccc(Cl)cc2)nn2cccc12`, the Potency was inconclusive: 89.1 µM [inhibitor, single point].
With `COc1ccc(CC(=O)NC2CCCc3c2[nH]c2c(Cl)cccc32)cc1` (centres undefined) the Potency was active: 25.1 µM.
With `O=C(NCc1cccc(Cl)c1)c1ccc2oc(-c3cccnc3)nc2c1` the Potency was inconclusive: 10 µM [inhibitor, full curve].
In the case of `FC(F)(F)c1cccc(Nc2ncc(-c3cccnc3)c3c2OCC3)c1`, the Potency is reported as inconclusive: 79.4 µM [inhibitor, partial curve, poor fit].
With `O=C(NC1CCN(c2cc(-c3cccs3)[nH]n2)C1)c1ccccc1` (centres undefined) the “activity change, negative = cytotoxicity” value was inactive: -26.2%.
For `O=C1CCC2(C(=O)NCCc3ccccc3)CCCC=C2N1c1ccccc1` (centres undefined), the “activity change, negative = cytotoxicity” value was inactive: -13.7%.
For `Cc1cc(OCCN2CCOCC2)c(C)c2c1CC[C@@H]([C@H](C)C(=O)N1CCOCC1)C2`, the Potency was inconclusive: 89.1 µM [inhibitor, partial curve, poor fit].
In the case of `COc1ccc(-c2ccnc3nc(C4CCC4)nn23)cc1`, the Potency is reported as inconclusive: 39.8 µM [inhibitor, partial curve].
For `COC(=O)c1ccccc1NC(=O)c1c(OC)cc(=O)n2c1CCCC2`, the Potency was inconclusive: 50.1 µM [inhibitor, partial curve, poor fit].
With `O=C(NCCO)c1ccc(-c2ncc3cnc(C4=CCOCC4)cn23)cc1` the Potency was inconclusive: 100 µM [inhibitor, single point].
For `O=C(c1cc2n(n1)CC(c1ccc(Cl)cc1)OC2)N1CCN(c2ccccc2Cl)CC1` (centres undefined), the Potency was inconclusive: 44.7 µM [inhibitor, partial curve, poor fit].
With `O=C1N(C2CCCCC2)C[C@H]2CN(Cc3cccc(OC(F)(F)F)c3)CCN12` the Potency was inconclusive: 56.2 µM [inhibitor, partial curve, poor fit].
In the case of `Fc1ccccc1CNC[C@H]1Cn2cc(-c3ccccc3)nc2CO1`, the “activity change, negative = cytotoxicity” value is reported as inactive: -27.6% [at 138 µM].
In the case of `COc1ccc(C(=O)N2CCN(c3ccc4nnc(C5CC5)n4n3)CC2)cc1`, the Potency is reported as “inactive and inconclusive: 50.1 µM [inhibitor, partial curve, poor fit]”.
For `C[S+](=O)([O-])NCCn1ccc2cc(OC3CCN(C(=O)C4CCCC4)CC3)cnc21`, the Potency was active: 100 µM.
For `Cc1ccccc1S(=O)(=O)N1CCn2c(nn(CC3CC3)c2=O)C1`, the “activity change, negative = cytotoxicity” value was inactive: -0.566%.
With `CCOCCCNC(=O)C1CCCCc2nnc(-c3ccccc3)n21` (centres undefined) the “activity change, negative = cytotoxicity” value was inactive: -14.9%.
In the case of `COC1CN(c2ccc(C)cc2)C12CCN(C(=O)c1ccco1)CC2` (centres undefined), the Potency is reported as inconclusive: 44.7 µM [inhibitor, partial curve, poor fit].
In the case of `Cc1ccc(C(=O)N2CCC(n3cc(-c4nc(-c5ccccc5)no4)nn3)CC2)c(C)c1`, the Potency is reported as inconclusive: 50.1 µM [inhibitor, partial curve, poor fit].
With `CCC(=O)N1CC(Oc2ccccc2-c2nc(C3CC3)no2)C1` the “activity change, negative = cytotoxicity” value was inactive: -15.6%.
With `NCc1ccc(-c2cccc(Cl)c2)cc1` the Potency was active: 31.6 µM.
For `O=C(NCC1CC1)c1cccc(OC2CN(Cc3ccc(OC(F)(F)F)cc3)C2)c1`, the Potency was inconclusive: 50.1 µM [inhibitor, partial curve, poor fit].
With `CCc1cccc(C)c1NC(=O)Cn1c(N(C)Cc2ccccc2)nc(C)cc1=O` the Potency was inconclusive: 44.7 µM [inhibitor, partial curve, poor fit].
With `CSc1ccc(-c2cccc(C(=O)NCCNC(=O)c3ccc(C(F)(F)F)cc3)c2)cc1` the “activity change, negative = cytotoxicity” value was inactive: -21.3%.
In the case of `CCC(C(=O)NCCn1ccn2nc(-c3cccc(OC)c3)cc2c1=O)c1ccccc1` (centres undefined), the Potency is reported as inconclusive: 50.1 µM [inhibitor, partial curve, poor fit].
In the case of `O=C(C1CCCC1)N1CC2(CCN(Cc3ccc(Cl)cc3)CC2)Cc2ccccc21`, the Potency is reported as inconclusive: 50.1 µM [inhibitor, partial curve, poor fit].
In the case of `Cn1cc(-c2cnc3[nH]cc(CC(=O)Nc4cccc(OC(F)(F)F)c4)c3c2)cn1`, the Potency is reported as inconclusive: 22.4 µM [inhibitor, full curve, poor fit].
In the case of `O=C(NCc1ccc(F)cc1)C1CN(c2ccc(Cl)cc2)C(=O)N1` (centres undefined), the Potency is reported as inconclusive: 25.1 µM [inhibitor, partial curve, poor fit].
For `COc1cc(Cl)ccc1-c1cccc(COc2cnc3c(ccn3CC(=O)O)c2)c1`, the “activity change, negative = cytotoxicity” value was inactive: -25.6% [at 138 µM].
With `CCc1cccc(NC(=O)c2ccc3c(c2)N(C)C2CCCCCN2C3=O)c1` (centres undefined) the Potency was inconclusive: 50.1 µM [inhibitor, partial curve, poor fit].
In the case of `CCC(=O)N1CCc2c(C(=O)N3CCN(c4cccc(OC)c4)CC3)cccc21`, the “activity change, negative = cytotoxicity” value is reported as inactive: -12.3%.
With `Cn1cnc2ccc(-c3cccc(O)c3)nc2c1=O` the Potency was inconclusive: 100 µM [inhibitor, partial curve, poor fit].
In the case of `COc1ccc(-c2nnc3ccc(N4C[C@@H](C)O[C@@H](C)C4)nn23)nc1`, the Potency is reported as inconclusive: 35.5 µM [inhibitor, partial curve, poor fit].
In the case of `Cc1nc2scc(CC(=O)NC(C)C)n2c(=O)c1-c1cc(C)n(-c2cccc(Cl)c2)n1`, the “outcome” value is reported as “inactive”.
For `COc1ccc(NC(=O)[C@H]2CN(Cc3ccccc3)C[C@H]2C(=O)O)cn1`, the “activity change, negative = cytotoxicity” value was inactive: 3.08%.
In the case of `O=C1Cc2c(-c3cccc(CO)c3)n[nH]c2CN1c1ccccc1`, the Potency is reported as inconclusive: 100 µM [inhibitor, partial curve].
With `CCn1cc(-c2ccccc2)cc1C(=O)NC(C)c1cccnc1` (centres undefined) the Potency was inconclusive: 44.7 µM [inhibitor, partial curve, poor fit].
With `CSc1cccc(NC(=O)O[C@@H]2CC[C@]3(C)C(CC[C@@H](O)[C@H]3CC(=O)N3CCC[C@H]3CO)[C@]2(C)CO)c1` (some centres undefined) the Potency was inconclusive: 50.1 µM [inhibitor, partial curve, poor fit].
For `c1cncc(CN2CCNc3cc(-c4cn[nH]c4)ncc3C2)c1`, the “outcome” value was “inactive [at 138 µM]”.
In the case of `Cc1noc2c(-c3ccc(CO)cc3)cc(-c3cccs3)nc12`, the Potency is reported as active: 22.4 µM.
For `CC1(c2ccccc2)N(Cc2ccccc2C#N)C(=O)OC12CCN(C(=O)c1ccc(F)cc1)CC2` (centres undefined), the Potency was inconclusive: 5.01 µM [inhibitor, full curve, poor fit].
With `COc1cc(Cl)ccc1C(=O)N1CCC2(CC1)NC(=O)N(c1ccccc1)N2` the Potency was inconclusive: 31.6 µM [inhibitor, partial curve].
In the case of `CCc1nc(-c2c3n(c(=O)n(Cc4cc(=O)n5ccccc5n4)c2=O)CCCC3)no1`, the Potency is reported as inconclusive: 44.7 µM [inhibitor, partial curve, poor fit].
For `O=C(Nc1cccc(Br)c1)N1CCC2(CC1)SCC(=O)N2Cc1ccccc1`, the Potency was active: 15.8 µM.
For `COc1ccc(-c2cc3c(=O)n(CCNC(=O)Cc4ccsc4)ccn3n2)cc1`, the Potency was inconclusive: 50.1 µM [inhibitor, partial curve, poor fit].
